Results as given in the supplement of paper PMC11417369.
This is one part of the list.

system: PfAP2-HC AP2 domain (GST-tagged); assay: gcPBM binding intensity (ln(normalized median fluorescence intensity)); higher = stronger DNA binding
In short: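 Using an Agilent 4 × 180k array, primer-extended double-stranded 36-bp intergenic genomic probes and negative controls were exposed for 1 h to GST-fused P. falciparum DNA-binding domains expressed in E. coli. Binding was carried out in 1× PBS with 1% milk, 0.2 mg/ml BSA, 0.5% salmon testes DNA and 0.03% Triton X-100, and protein was detected with Alexa488 anti-GST antibody and a 488 nm scan. Binding intensity is the highest Masliner-normalised natural-log median intensity across replicate spots of either probe orientation.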

| Sequence | gcPBM binding intensity (ln) |
| --- | --- |
| TTAGAGAAACAAAATTGTACATTATAAATTTGCCTT [XGTACX_site440] | 9.43 |
| TATTTGAAAGCCAATTGTACTTTAGTTTTTGAAACA [XGTACX_site5542] | 9.4 |
| CTATTTCAGAAACACACACACACAAACAAACATATA [CACACA_site978] | 10.4 |
| TTAAATATAATATTATGTACTAAATATTTTTTTATT [XGTACX_site6121] | 9.58 |
| TTTCTTTTTAAATAGGTGCATATTTTTATAAATATA | 9.51 |
| TATATATATATATATATATATATGTATGTGCATTTA [TGCATGCA_negctrl_site53] | 9.56 |
| ATATAAAAATGTAAGGGTACATAATAAATAATCAAA [XGTACX_site5217] | 9.99 |
| ATTTAGAAAAATAAAACACACATATATATGTAAATA [CACACA_site4113] | 9.84 |
| ATCTGTCGACAGGACAGTACACAGTAGCCAGGAAAT [XGTACX_site1994] | 9.67 |
| GAAGGAAAAACAGAATGTACATAAATAAACGTATAT [XGTACX_site753] | 10.1 |
| ACAAAATTTACAAAATGTACAAAATTTACAAAATGT [XGTACX_site6464] | 9.56 |
| TATATCTTACTTTTTGCACACACTAATATTATTGTT [CACACA_site1640] | 10.4 |
| AATACGGCAAACATTAAAAAATATAATAACAATAAA [CACACA_negctrl_site868] | 9.82 |
| GGAAAAAATATATGCACACCCCCCAAAAAAAAAAAA [CACACA_site2222] | 10.3 |
| AAAAAATATTAATATAGTACTTTATATTTATAAGTA [XGTACX_site6895] | 9.47 |
| TTTTTGTTATTTTTAGTGCACATTTAAGGGTGTATT | 9.7 |
| ATATATATATATACATGTACATATATACATTATATT [XGTACX_site936] | 9.69 |
| AAACATTTAAATGGAAACACAGAAAAATGAAAAATG [CACACA_negctrl_site457] | 9.96 |
| TTTTTTTTTTGTAATACACACCACTATATGTTATTT [CACACA_site5087] | 10.1 |
| TAAAAAATAAAATACACACACATATTTATATTTATA [CACACA_site6737] | 10.2 |
| CAACAACATTTTTCATGTACATATATTTTATAATAT [XGTACX_site519] | 9.72 |
| AAAAAAAAAAAAAACATACACACAAGAACAAAATAT [CACACA_site3003] | 10.2 |
| ATGTTATATTTTTTTATACACACTGGAATATATAAA [CACACA_site215] | 9.55 |

| Sequence | gcPBM binding intensity (ln) |
| --- | --- |
| TATATATATATATATTGTACTTTATTTTATATATTC [XGTACX_site5697] | 9.79 |
| ATTATTATTGTCAAATGTACAAGCTAATAATTTTTA [XGTACX_site7167] | 9.32 |
| ATTTATAATGAGTATACACACATATATAGATTTGCT [CACACA_site4517] | 9.77 |
| AAAAAAAAAAAAAAAACACACATATATGTATATATA [CACACA_site3276] | 9.78 |
| CAATTACGCAGGAATGCACACAATAATAAAAAAAAT [CACACA_site3513] | 9.87 |
| TTTTTTCTTTTCAAGGTGCTTTATAAGAAAAAGGGA [GTGCAC_site9858] | 9.17 |
| AAAAAAAAAAAAAACACACACACACCCAAATACATA [CACACA_site708] | 10.5 |
| TATATTAAAACAAGCACACAATCGCATAATATCCTT [CACACA_site3210] | 10.1 |
| TATTTTATCATTTGCACACGCACACCCACATAAAAA [CACACA_site354] | 10.1 |
| AGTATTATATTTTCTTGTACACATGTAAAATACCTC [XGTACX_site1359] | 9.65 |
| TATTATTCAAATAAAAGAAAAATATATATATTATAT [GTGCAC_negctrl_site273] | 9.49 |
| ATATGTTACTTTACATAAAGAAGAAGAAGAAGAAAA [CACACA_negctrl_site985] | 9.66 |
| TTTCAAAAAGGAAGAAAAAAAAAAAAAAAAAATATA [XGTACX_negctrl_site514] | 9.23 |
| TCCCCCTTTTTTTGATTTTTATCTTAATTCTAAAAG [GTGCAC_negctrl_site541] | 9.46 |
| ATATATATATATATATGTACATATTTTTTATTTTAT [XGTACX_site5761] | 9.69 |
| AATAAAGAAGAAGAAAGTACACATTTCACAAAGGGG [XGTACX_site1308] | 9.78 |
| GATATATGTATAATAACGCACACTACAAAAATAAAA [CACACA_site2100] | 9.92 |
| ATAAAATATAGGTATGCACACACATATACTTCTGTG [CACACA_site8398] | 10.4 |
| AAGGTATGATTAATCACACACATAAATATAAATACA [CACACA_site5464] | 10.1 |
| AAGCTTCATTAATATACACACATATATGTGTATATT [CACACA_site7693] | 10 |
| GTTAGTTTTAGTTCATGTACATAATAGAAAATATAT [XGTACX_site7125] | 9.57 |
| TATATAATACGAATTTGTACATATTAAATAAATTAT [XGTACX_site93] | 9.64 |
| AATGAATGTACATACGCATGTACTTGACTAAATTAT [TGCATGCA_site436] | 9.73 |

| Sequence | gcPBM binding intensity (ln) |
| --- | --- |
| AAACTATACCAAAACACACATACAAAATATAAAAAA [CACACA_site2707] | 10.5 |
| ATTTTCAAATTATCAGATGAATCTTTTTAAGATCTT [XGTACX_negctrl_site598] | 9.4 |
| CTCATATATAACACATGTACACAGATTTTGCAAATG [XGTACX_site6879] | 9.64 |
| GTCTGCATATGGATACGTACACATATATATTAATGT [XGTACX_site2260] | 10 |
| TTTTTTTTTTTTTTTTTACACACTGCATACAAGAAA [CACACA_site3026] | 9.32 |
| GGGAAAAAATGAGGTCGTACATTTTTCATCACAAAT [XGTACX_site8920] | 9.5 |
| TAATATATTATAAACACATGCACATTAATAATAACT [TGCATGCA_site708] | 9.66 |
| TATTTTTTAAAAAAACGTACAAACATAATAAAAATA [XGTACX_site1857] | 9.54 |
| TATATATATATATATGTGCACATTTTATTAAAATGT | 9.67 |
| ATAGACATTTTACTTTGTACATATAAACATATATAT [XGTACX_site2733] | 9.86 |
| ATATGAAACATGAAGGTGCATAATGTGTATATTTAT | 10 |
| ACATAAATATATTTTTCACACATCATTAGTTATGAA [CACACA_site4724] | 9.6 |
| TGGTAATACCCATACACACACACATACCCATATATA [CACACA_site5509] | 10.3 |
| ATAAATAAAACAACAGTGCAATAAAATTAGTTGAGG | 10 |
| TTTTTTATGAGGTGGTGTACTTTTTTTTTTTTCTTT [XGTACX_site8550] | 10.2 |
| CAAGAAACAGTGATACGTACACATATATATATATAT [XGTACX_site3229] | 9.91 |
| TTCAAATAAATAGTAGTGCATATTTATTAATGTAAA | 9.5 |
| ATTAAAGAGAGACATCAACACACATACGTATGTATA [CACACA_site8393] | 9.79 |
| TGTATTATCTCTTATGAACACACATTTTTATTTTCA [CACACA_site9107] | 9.86 |
| ATGTTAATTAATGAGGTGCATTGAATATTTCAATAA | 9.53 |
| CATCAATGCTAATTATGTACTTACATAAATAACCCT [XGTACX_site968] | 9.59 |
| ATACCTAAAAAATATACACACATATATATAAATATA [CACACA_site2580] | 10.1 |
| AATTAAATGTTTCTAAGATATACGACCAATGTATTT [CACACA_negctrl_site1694] | 9.4 |

| Sequence | gcPBM binding intensity (ln) |
| --- | --- |
| AATTAATGGGTACATACACACATATATACATACATA [CACACA_site742] | 9.87 |
| TATATATTACATAAAACACACAAAAAAAAAATTAAA [CACACA_site3882] | 9.99 |
| TTTATATTTTTTTTTGCACACTTTAAAAAAATATAT [CACACA_site1146] | 9.7 |
| GAATATTTATGATGAACTATTAATTAATTTTACATA [GTGCAC_negctrl_site353] | 9.41 |
| AAATAAATTGAAGATACATGCATATTTTTTTTTTAT [TGCATGCA_site686] | 9.65 |
| ATGTAGAGTAATAGTTGTACAAGGTGTATATCTCAT [XGTACX_site6370] | 10 |
| TGGTGAAAAATATAAATATAAATAAATATATATATA [CACACA_negctrl_site1725] | 9.56 |
| AGAAGAAAACAAAACACACACATATATCTTAATATA [CACACA_site2231] | 10.2 |
| AAAAAAAAAAACTTTGCATGTAATAATAAAAAAAAA [TGCATGCA_site81] | 9.41 |
| ATGATCTGTTTGTTTGTGCACATATATATATATTAA | 9.89 |
| AAAAAAAAAAACGACAGTACAATTATAATTTATATT [XGTACX_site2365] | 9.68 |
| AGAGTTAAACGATATATATAAATATATATATATATA [GTGCAC_negctrl_site316] | 9.7 |
| ATGTCTTAAAAATTAAAACACACGTTCACTTTCATA [CACACA_site3385] | 9.7 |
| AGATCATAATATTATACACACATTAGATATAGGTAA [CACACA_site6809] | 9.85 |
| TATCACCCACCATGAAGTACATATTACCATTTGATG [XGTACX_site845] | 9.79 |
| ATAAATAAATAAAAGCGTACATATATATAAAATATA [XGTACX_site8107] | 9.77 |
| AAAAGGAAGATATATACACACATACAAATATTTATA [CACACA_site7093] | 9.92 |
| TTATACTAAATGAACACACACACATATATATATATA [CACACA_site99] | 10.3 |
| AAATGTAATTTGTCTTTTATTTATATTTGACATGAT [TGCATGCA_negctrl_site520] | 9.48 |
| ATATTAATGATATATACACACATAAGTATTGTATAT [CACACA_site7844] | 9.82 |
| TTGATGGGAAAAAACTTTTTTTTCTTTTTTTCTTTC [CACACA_negctrl_site328] | 9.59 |
